# Test results as given in PubChem BioAssay (Tox21).
# “And” between values parts separate entries of the source, which are not always exact repeats. Equal values may be shown once. This list was built around the results that the source calls inconclusive (neither active nor inactive); the mix of calls is not that of the screen. Entries that show only a call come without a potency. For some of these results: Potencies beside an inconclusive call are fits to weak or partial responses and may not hold up. The source made the active and inactive calls. Unless noted, calls come from the whole dose curve.
# Assays:
# [1] = qHTS assay to identify small molecule agonists of the vitamin D receptor (VDR) signaling pathway - cell viability counter screen (AID 743224; active = well fitted curve in the direction sought with a large enough effect in the repeat runs; inconclusive = weak or mixed curves; inactive = no such curve, though single readings can be large; an effect the other way counts as inactive or inconclusive; note: nearly all actives have a fitted effect of over 50% in size); conditions: VDR-bla HEK293T viability, CellTiter-Glo luminescence, 16 h; activity change, negative = cytotoxicity: at 62.6 µM (top of the series)
# Procedure, shortened: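 Plated VDR-bla cells (4 h, 37C) received compound, incubated 16 h, then LiveBLAzer substrate 2 h RT; CellTiter-Glo added afterwards, luminescence read at 30 min.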
# [2] = qHTS assay to identify small molecule agonists of the endoplasmic reticulum stress response signaling pathway (AID 1159516; active = well fitted activation curve with a large enough effect in the signal ratio in the repeat runs, not every such curve was filed as active; inconclusive = weak or mixed curves, or effect the other way; the % refers to the signal ratio); conditions: ESRE-bla HeLa, ER stress beta-lactamase reporter, 5 h; activation: at 61 µM (top of the series) unless noted
# Procedure, shortened: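 An ESRE-bla HeLa cell assay: compounds were pin-transferred from DMSO onto overnight-plated cells and left 5 hr at 37 C. Substrate was then loaded for 2 hr at room temperature before reading fluorescence at 460 nm and 530 nm.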
# [3] = target: Vitamin D3 receptor (Homo sapiens) (UniProt P11473); test: qHTS assay to identify small molecule antagonists of the vitamin D receptor (VDR) signaling pathway (AID 743223; active = well fitted inhibition curve with a large enough effect in the signal ratio in the repeat runs, not every such curve was filed as active; inconclusive = weak or mixed curves, or effect the other way; inactive = no such curve, though single readings can be large or run the other way; the % refers to the signal ratio); conditions: VDR-UAS-bla HEK293T, beta-lactamase FRET ratio, 16 h; activity change, negative = inhibition: at 61 µM (top of the series) unless noted
# Chain of UniProt P11473 (P11473 whole entry, looked up): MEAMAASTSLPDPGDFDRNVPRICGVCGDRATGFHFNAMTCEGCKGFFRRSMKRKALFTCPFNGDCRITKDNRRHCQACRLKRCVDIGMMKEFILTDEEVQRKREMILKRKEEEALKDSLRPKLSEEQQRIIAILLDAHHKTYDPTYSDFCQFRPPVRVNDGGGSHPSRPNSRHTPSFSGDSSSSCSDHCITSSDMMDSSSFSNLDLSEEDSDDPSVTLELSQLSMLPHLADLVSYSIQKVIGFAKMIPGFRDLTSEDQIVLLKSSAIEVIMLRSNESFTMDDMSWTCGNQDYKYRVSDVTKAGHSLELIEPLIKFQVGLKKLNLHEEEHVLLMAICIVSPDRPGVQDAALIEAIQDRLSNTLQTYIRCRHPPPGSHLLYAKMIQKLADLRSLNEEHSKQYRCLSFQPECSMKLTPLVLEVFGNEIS
# Procedure, shortened: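 Inhibition of agonist-driven VDR signalling is scored in VDR-bla cells: 3 nM final 1alpha,25-dihydroxyvitamin D3 plus compound, 16 h at 37C, then beta-lactamase detection by FRET substrate fluorescence after 2 h.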
# [4] = qHTS assay to identify small molecule agonists of the endoplasmic reticulum stress response signaling pathway - cell viability counter screen (AID 1159517); note: nearly all actives have a fitted effect of over 50% in size;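 for activity change, negative = cytotoxicity: HeLa cells carrying an ER stress response element beta-lactamase reporter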
# Procedure, shortened: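 Luminescence readout: CellTiter-Glo, 30 min RT, same wells as the ESRE-bla reporter read. HeLa ESRE-bla, 1,500 cells/well, o/n 37 C; cpd 5 hr 37 C/5% CO2.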
# [5] = qHTS assay to identify small molecule antagonists of the vitamin D receptor (VDR) signaling pathway - cell viability counter screen (AID 743225; active = well fitted curve in the direction sought with a large enough effect in the repeat runs; inconclusive = weak or mixed curves; inactive = no such curve, though single readings can be large; an effect the other way counts as inactive or inconclusive; note: nearly all actives have a fitted effect of over 50% in size); conditions: VDR-bla HEK293T viability, CellTiter-Glo luminescence, 16 h; viability change, negative = cytotoxic: at 61 µM (top of the series) unless noted
# Procedure, shortened: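 Compounds were pinned onto VDR-bla HEK 293T cells together with 1-alpha,25-dihydroxyvitamin D3 at 3 nM final. After 16 h at 37C and 5% CO2 plus the reporter readout, cell viability was measured by CellTiter-Glo luminescence (30 min, room temperature).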
# [6] = target: Vitamin D3 receptor (Homo sapiens) (UniProt P11473); test: qHTS assay to identify small molecule agonists of the vitamin D receptor (VDR) signaling pathway (AID 743222); conditions: HEK293T VDR-UAS-bla, beta-lactamase FRET ratio, 16 h; activation: at 63.5 µM (top of the series) unless noted
# Procedure, shortened: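 In VDR-bla cells, compound-induced beta-lactamase expression is quantified by FRET substrate fluorescence. Treatment lasts 16 h at 37C; substrate develops 2 h at room temperature.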
# [7] = qHTS assay to identify small molecule antagonists of the retinoid-related orphan receptor gamma (ROR-gamma) signaling pathway - cell viability counter screen (AID 1159520; active = well fitted curve in the direction sought with a large enough effect in the repeat runs; inconclusive = weak or mixed curves; inactive = no such curve, though single readings can be large; an effect the other way counts as inactive or inconclusive; note: nearly all actives have a fitted effect of over 50% in size)
# Procedure, shortened: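 Tet-on ROR gamma CHO cells (1,000/well) were plated 4 hr, given compounds in DMSO for 2 hr at 37 C, then induced with 1 uM final doxycycline for 16 hr. Viability was read as ATP by CellTiter-Glo luminescence after 30 min.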
# [8] = target: Retinoic acid receptor RXR-alpha (Homo sapiens) (UniProt P19793); test: qHTS assay to identify small molecule agonists of the RXR signaling pathway (AID 1159527); conditions: HEK293T RXRa-UAS-bla, beta-lactamase ratio, 16 h; activation: at 76.8 µM (top of the series) unless noted; note: nearly all actives have a fitted effect of over 35% in size
# Chain of UniProt P19793 (P19793 whole entry, looked up): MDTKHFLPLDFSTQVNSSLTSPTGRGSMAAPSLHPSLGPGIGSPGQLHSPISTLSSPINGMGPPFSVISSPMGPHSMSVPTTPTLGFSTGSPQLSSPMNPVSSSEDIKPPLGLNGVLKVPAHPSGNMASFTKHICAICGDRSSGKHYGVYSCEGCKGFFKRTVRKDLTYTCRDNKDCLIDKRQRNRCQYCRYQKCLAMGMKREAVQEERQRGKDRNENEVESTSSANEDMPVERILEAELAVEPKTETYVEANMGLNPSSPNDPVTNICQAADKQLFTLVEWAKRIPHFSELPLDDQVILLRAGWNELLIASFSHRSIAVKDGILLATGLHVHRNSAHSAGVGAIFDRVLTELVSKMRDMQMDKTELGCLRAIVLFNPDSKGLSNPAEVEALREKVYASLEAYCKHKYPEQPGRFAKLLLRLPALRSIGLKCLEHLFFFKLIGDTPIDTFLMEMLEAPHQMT
# Procedure, shortened: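 Using 9-cis retinoic acid as the reference agonist, chemicals were tested in HEK 293T cells […] for 16 hr; substrate loading lasted 2 hr at room temperature.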
# [9] = qHTS assay to identify small molecule antagonists of the peroxisome proliferator-activated receptor delta (PPARd) signaling pathway - cell viability counter screen (AID 743213; active = well fitted curve in the direction sought with a large enough effect in the repeat runs; inconclusive = weak or mixed curves; inactive = no such curve, though single readings can be large; an effect the other way counts as inactive or inconclusive; note: nearly all actives have a fitted effect of over 50% in size); conditions: PPARd-bla HEK293H viability, CellTiter-Glo luminescence, 17 h; viability change, negative = cytotoxic: at 62 µM (top of the series) unless noted
# Procedure, shortened: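 Same-well viability: cells pre-incubated 5 h, dosed with compound plus 300 nM L165041, kept 17 h at 37 C, FRET substrate 2 h RT, then CellTiter-Glo 30 min RT and luminescence.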
# [10] = target: Peroxisome proliferator-activated receptor delta (Homo sapiens) (UniProt Q03181); test: qHTS assay to identify small molecule antagonists of the peroxisome proliferator-activated receptor delta (PPARd) signaling pathway (AID 743215; active = well fitted inhibition curve with a large enough effect in the signal ratio in the repeat runs, not every such curve was filed as active; inconclusive = weak or mixed curves, or effect the other way; inactive = no such curve, though single readings can be large or run the other way; the % refers to the signal ratio;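 note: cells stimulated with agonist L165041 at 300 nM final during compound exposure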); conditions: HEK293H PPARd-UAS-bla, beta-lactamase FRET ratio, antagonist, 17 h; ratio activity, negative = inhibition: at 62 µM (top of the series) unless noted
# Chain of UniProt Q03181 (Q03181 whole entry, looked up): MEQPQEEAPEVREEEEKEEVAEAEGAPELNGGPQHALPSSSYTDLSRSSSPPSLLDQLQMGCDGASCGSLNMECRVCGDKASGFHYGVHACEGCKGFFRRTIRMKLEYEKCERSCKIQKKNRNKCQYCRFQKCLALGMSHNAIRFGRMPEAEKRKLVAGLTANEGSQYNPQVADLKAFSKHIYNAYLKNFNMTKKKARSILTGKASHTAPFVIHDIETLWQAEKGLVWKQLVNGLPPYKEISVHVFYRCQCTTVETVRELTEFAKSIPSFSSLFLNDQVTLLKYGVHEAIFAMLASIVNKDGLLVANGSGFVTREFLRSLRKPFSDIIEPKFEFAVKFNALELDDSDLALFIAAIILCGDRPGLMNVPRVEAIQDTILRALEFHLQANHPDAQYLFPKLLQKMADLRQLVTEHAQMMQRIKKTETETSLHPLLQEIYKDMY
# Procedure, shortened: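 HEK293H UAS-bla, PPARd; agonist L165041 300 nM final with cpd in DMSO; 37 C 17 h; FRET substrate, RT 2 h; fluorescence intensity.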
# [11] = qHTS assay to identify small molecule agonists of the farnesoid-X-receptor (FXR) signaling pathway - cell viability counter screen (AID 743218; active = well fitted curve in the direction sought with a large enough effect in the repeat runs; inconclusive = weak or mixed curves; inactive = no such curve, though single readings can be large; an effect the other way counts as inactive or inconclusive; note: nearly all actives have a fitted effect of over 45% in size); conditions: FXR-bla HEK293T viability, CellTiter-Glo luminescence, 16 h; viability change, negative = cytotoxic: at 62.6 µM (top of the series) unless noted
# Procedure, shortened: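 Parallel cytotoxicity test: compound-treated (16 h, 37 C) HEK 293T FXR-bla reporter cells were lysed with CellTiter-Glo and luminescence recorded.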
# [12] = target: Nuclear receptor ROR-gamma (Homo sapiens) (UniProt P51449); test: qHTS assay to identify small molecule antagonists of the retinoid-related orphan receptor gamma (ROR-gamma) signaling pathway (AID 1159521; active = well fitted curve in the direction sought with a large enough effect in the repeat runs; inconclusive = weak or mixed curves; inactive = no such curve, though single readings can be large; an effect the other way counts as inactive or inconclusive; note: nearly all actives have a fitted effect of over 50% in size)
# Procedure, shortened: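 Test compounds were applied to Tet-on RORγ CHO cells 2 h ahead of doxycycline hyclate (1 uM final). Luciferase reporter activity was quantified by luminescence after 16 h at 37 C and 5% CO2.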
# [13] = qHTS assay to identify small molecule agonists of the AP-1 signaling pathway (AID 1159526); conditions: ME-180 (cervical carcinoma) AP-1-bla reporter, beta-lactamase FRET ratio, 5 h; activation: at 76.8 µM (top of the series) unless noted
# [14] = qHTS assay to identify small molecule agonists of the RXR signaling pathway - cell viability counter screen (AID 1159529; active = well fitted curve in the direction sought with a large enough effect in the repeat runs; inconclusive = weak or mixed curves; inactive = no such curve, though single readings can be large; an effect the other way counts as inactive or inconclusive; note: nearly all actives have a fitted effect of over 50% in size)
# Procedure, shortened: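 Compounds dissolved in DMSO were pinned onto HEK 293T cells carrying a beta-lactamase reporter under RXR-alpha control and incubated 16 hr. Cytotoxicity was then quantified by CellTiter-Glo luminescence.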
# Potency is the fitted concentration of half-maximal effect; tags give direction and shape of the fitted curve or compound fluorescence and quenching.
structure (smiles),measurement,setting,value
CN(C)CCOC(=O)C(c1ccccc1)C1(O)CCCC1 (stereo unspecified),Potency,[1],"inconclusive: 16.8 µM [cytotoxic, partial curve, poor fit]"
same,Potency,[2],inactive
CCOCCOCCOC(C)=O,"activity change, negative = inhibition",[3],inconclusive: 25.3% [at 78.8 µM]
same,Potency,[2],inactive
O=C1CCCC(=O)C1,Potency,[4],inactive
O=c1cc(O)c(Cl)c[nH]1,Potency,[4],inactive
COC(=O)c1ccccc1Cl,Potency,[4],inactive
CN(C)CCc1c[nH]c2ccc(C[C@H]3COC(=O)N3)cc12,Potency,[4],inactive
CC/C=C\CCOC(C)=O,Potency,[1],inactive
same,Potency,[5],inactive
same,Potency,[2],inactive
CC(C)NC(=O)c1ccc(C=O)cc1,Potency,[3],inactive
same,Potency,[2],inactive
N[C@H](C(=O)O)c1ccc(O)cc1,Potency,[3],inactive
same,Potency,[2],inactive
COc1cc(C(=O)N2CCOCC2)cc(OC)c1OC,Potency,[3],inactive
same,Potency,[1],inactive
same,Potency,[2],inactive
C=C(C)[C@@H]1CCC2=CC(=O)C[C@@H](C)[C@]2(C)C1,"activity change, negative = inhibition",[3],inconclusive: -39.1%
same,Potency,[5],"inconclusive: 54.9 µM [cytotoxic, single point]"
same,Potency,[2],inactive
CCOc1ncc(F)c(=O)[nH]1,Potency,[4],"inconclusive: 9.52 µM [rising, single point]"
COc1ccc(C)cc1,Potency,[6],inactive
same,"activity change, negative = inhibition",[3],inconclusive: 6.83%
same,Potency,[2],"inconclusive: 1.38 µM [rising, full curve, poor fit]"
Cc1nc2ccccc2c(=O)o1,Potency,[1],inactive
same,Potency,[2],inactive
OCCCCCCCl,Potency,[3],inactive
same,Potency,[2],inactive
Nc1ccn([C@@H]2O[C@H](CO)[C@@H](O)C2O)c(=O)n1 (stereo partly specified),"activity change, negative = inhibition",[3],inconclusive: 17.1%
same,Potency,[2],inactive
CC1=C(C(=O)O)N2C(=O)[C@@H](NC(=O)[C@H](N)C3=CCC=CC3)[C@H]2SC1,Potency,[3],"inconclusive: 9.52 µM [activator, single point]"
same,Potency,[2],inactive
CC1=CC(=O)CC(C)(C)C1(O)/C=C/C(C)=C\C(=O)O (stereo unspecified),Potency,[4],"inconclusive: 17.2 µM [rising, partial curve, poor fit]"
CCCO,"activity change, negative = inhibition",[3],inconclusive: 4%
same,Potency,[2],inactive
O=c1[nH]c2cc(C(F)(F)F)c(N3CCOCC3)cc2n(CP(=O)(O)O)c1=O,Potency,[4],"inconclusive: 0.239 µM [cytotoxic, single point]"
CC(C)NC[C@@H](O)COc1ccc(CC(N)=O)cc1,Potency,[4],"inconclusive: 0.239 µM [cytotoxic, single point]"
CCOC(=O)CCCCCCCCC(=O)OCC,"activity change, negative = inhibition",[3],inconclusive: -14.1%
same,Potency,[2],inactive
O=C1CC[C@@H](C(=O)O)N1,Potency,[4],"inconclusive: 0.0849 µM [cytotoxic, full curve, poor fit]"
CCc1ccc(C)cc1,Potency,[4],"inconclusive: 10.8 µM [rising, full curve, poor fit]"
same,Potency,[7],inactive
same,Potency,[8],inactive
CCCCN(CCCC)C(=S)SSC(=S)N(CCCC)CCCC,Potency,[9],"inconclusive: 48.5 µM [cytotoxic, single point]"
same,Potency,[10],active: 21.7 µM
same,Potency,[11],"inconclusive: 34.3 µM [cytotoxic, partial curve, poor fit]"
same,Potency,[6],"inconclusive: 54.4 µM [rising, single point]"
same,Potency,[3],inactive
same,Potency,[5],"inconclusive: 10.9 µM [cytotoxic, single point]"
same,Potency,[4],inactive
same,Potency,[7],"inconclusive: 27 µM [cytotoxic, partial curve]"
same,Potency,[12],"inconclusive: 24.1 µM [inhibitor, partial curve]"
same,Potency,[13],"inconclusive: 24.3 µM [falling, partial curve]"
same,Potency,[8],"inconclusive: 3.85 µM [inhibitor, partial curve]"
same,Potency,[14],active: 48.5 µM
CCCCCCCCCC(=O)O,"ratio activity, negative = inhibition",[10],inconclusive: 0.0029% [at 80.4 µM]
same,Potency,[11],"inconclusive: 0.0309 µM [rising, full curve, poor fit]"
same,Potency,[4],"inconclusive: 1.16 µM [cytotoxic, single point]"
same,Potency,[7],inactive
same,Potency,[8],"inconclusive: 49.1 µM [activator, partial curve] and inconclusive: 57.9 µM [activator, single point]"
